# Measured values taken from the supplement of paper PMC3334620.
# In all, about 33,000 sequences were measured (“E-score (-0.5 to 0.5)”: median about -0.04, highest 2% from about 0.36 on). This is one part of the list.
# Target: T1, Hmlalpha2 (UniProt P0CY09)
# T1 sequence: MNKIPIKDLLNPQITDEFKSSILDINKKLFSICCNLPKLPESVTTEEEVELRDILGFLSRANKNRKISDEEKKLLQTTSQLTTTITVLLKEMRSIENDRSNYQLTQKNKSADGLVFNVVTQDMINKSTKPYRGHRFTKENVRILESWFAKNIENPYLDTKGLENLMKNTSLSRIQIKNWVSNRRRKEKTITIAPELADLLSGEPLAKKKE
# Experiment: PBM E-score (8-mer binding enrichment) (E-score (-0.5 to 0.5)); higher = stronger / more preferred TF binding; most listed sequences are background and not binding sites
# Details: protein concentration: 200 nM; construct: GST-full length
# Method in brief: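 Yeast transcription factors carrying a GST tag, as full-length proteins or DNA-binding domains, were produced by PURExpress in vitro transcription/translation. About 100-200 nM protein was applied to universal all-10-mer Agilent arrays, double-stranded by primer extension on fresh or once-stripped slides. Bound protein was detected with fluorescent anti-GST, and scans were normalised with masliner. The Universal PBM Analysis Suite gave each ungapped eight-base word, pooled with its reverse complement, an E-score, a modified Wilcoxon-Mann-Whitney statistic.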
row,Sequence,PBM E-score
1,AGGTCGAC,-0.0255
2,AGGCGGCC,-0.381
3,AGACCACC,-0.238
4,ACTTGCAC,0.0364
5,AAGTTCAT,0.0157
6,AGGGAGTA,-0.0411
7,CACGTTGC,0.14
8,GGACCCCC,-0.405
9,GAGCGCGC,-0.225
10,AAACGTAT,0.278
11,AAATGTGG,0.0439
12,GCGCAAAA,0.0241
13,ACCGTAAA,0.237
14,ACTGGCAA,-0.0631
15,GGCCAGAC,-0.105
16,GCGGTTGA,0.117
17,GGATTAAA,0.0541
18,ATTTAGTA,0.185
19,ATGGGGCG,-0.0324
20,TCTGGCCA,0.0476
21,ATCGACGC,0.182
22,CCTTAGCA,-0.0948
23,AGAACTGA,0.114
24,GCGATACC,-0.315
25,ACACTCCT,0.122

row,Sequence,PBM E-score
1,AATGATAA,0.228
2,AATTCCAC,-0.0149
3,TATACGAA,0.124
4,GGCCAACC,-0.156
5,AATAACTG,0.0798
6,GCTCGAGC,0.209
7,ACAGGCTG,0.033
8,ACGGGAAA,-0.0106
9,GACAAGGC,0.095
10,ATAGGTCA,0.0648
11,AGGGGGTG,-0.192
12,CGCCTGAA,0.00827
13,ACAATGAC,0.116
14,GAATTTAC,0.243
15,CAGACTGA,-0.00466
16,CTATTTCC,0.0509
17,CACACCCC,-0.0498
18,ACATACGT,0.249
19,TATATACA,0.389
20,ACCCGGCG,-0.0988
21,AGCAGACT,0.169
22,ACCCAAAA,-0.0527
23,GGTACGTA,0.199
24,CAAGGCAA,-0.0303
25,GCCTTCGC,-0.303

row,Sequence,PBM E-score
1,CGTGCGAA,0.00678
2,CCATATCC,-0.3
3,AGGGCGAT,-0.047
4,AACTTCTT,0.163
5,CATGTGAC,0.19
6,AACATAGA,0.284
7,ACCGCAGG,-0.213
8,CGCCCTCA,-0.218
9,CGCAAGCA,-0.0503
10,ACATGTAT,0.454
11,CTTAACCA,0.0416
12,ATGAAGGC,-0.0496
13,AGATGACC,-0.174
14,TAAACGAA,0.165
15,ACGCGAAT,0.272
16,GGACTAGA,-0.227
17,CACGATGG,-0.0802
18,AGTCGGTG,-0.213
19,GCACCTAA,-0.0209
20,AATGCGAG,0.105
21,TATTAACA,0.428
22,AGAAGTGG,-0.351
23,AACAATCT,0.179
24,CGCGTCGC,0.0806
25,ACCATTAT,-0.111

row,Sequence,PBM E-score
1,AAGGTAAA,0.215
2,TGACATAA,0.319
3,AGCACGAC,-0.036
4,AATTTTGT,0.101
5,ATCCTGGC,-0.245
6,AATTCAGC,-0.11
7,CACAGTCC,-0.0662
8,AGCGGCTG,-0.16
9,GCACTAAC,-0.0951
10,GAAAGGGA,-0.156
11,GAACTCAA,-0.0818
12,CTGTGCTC,0.0747
13,AGCGGTTG,-0.0521
14,ACCAACGG,0.106
15,CGGCAGAC,-0.268
16,ATGGTGCC,-0.225
17,AGCAGGGG,-0.309
18,AGTATGCG,0.0952
19,CCCCGCCA,-0.196
20,AGGCGTCG,-0.0335
21,CAGTTATG,0.0317
22,AGACTTAT,-0.00401
23,AAATAATA,0.168
24,AACGTGCT,0.138
25,GCACCCGA,-0.275

row,Sequence,PBM E-score
1,GGACTTTA,-0.0551
2,TGTGCTAA,0.217
3,AACTCTCG,0.00226
4,AACCTTAG,-0.121
5,GTGACAAA,-0.0398
6,GGACCCGA,-0.33
7,TAAATACA,0.434
8,TCGTGAAA,-0.0247
9,CGCGCAGA,-0.00778
10,ATGGTGGG,-0.308
11,TAATGAAA,0.229
12,TACTTACA,0.379
13,CAGGCGAG,-0.208
14,AGGACATC,-0.0672
15,AACTCCTC,-0.176
16,GCGGCATA,0.0326
17,GTTCAAGA,0.0155
18,ATCGGAAA,-0.0714
19,GCCTACCC,-0.204
20,CCGCCGTC,-0.207
21,GCCCTACC,-0.203
22,ATGGAGCA,0.0185
23,TGACAGCA,0.181
24,ACGACGTG,0.287
25,CACACTAG,0.00781

row,Sequence,PBM E-score
1,ACGAATGA,0.0688
2,GGCTACAA,0.00252
3,CGACTTGA,-0.0293
4,ACCAGTGA,-0.0562
5,GAATTGAA,0.0239
6,CTAGCCTC,-0.232
7,AATCGGAC,-0.131
8,CCACTGTA,-0.0906
9,GGCGTGAA,-0.0431
10,ACTGAGCG,-0.168
11,GCGTATCA,0.0411
12,AAGTCCAC,-0.168
13,CAGCGGCA,-0.151
14,ATTTGCGA,0.0385
15,CCTCCACG,-0.114
16,AAGGGGAG,-0.287
17,CGGGTAGA,-0.0547
18,CATCACCA,-0.0675
19,CTGCAGTA,-0.0972
20,ACCTTTTC,-0.168
21,TCTAAAAA,0.0747
22,TGAAAGAA,0.129
23,CCCGCCGC,-0.279
24,GTTTGACA,0.303
25,ACGCACGT,0.192

row,Sequence,PBM E-score
1,ACGATAGA,-0.0187
2,CCATGTTC,0.275
3,AGATCCGG,-0.187
4,GACGCGAA,-0.0793
5,AAAAGAAT,0.103
6,TACGACAA,0.119
7,CGCGTACC,0.144
8,ACAGGTAT,0.125
9,AGAAGATG,-0.118
10,ACCACTCC,-0.208
11,CTACAGTC,0.0127
12,ATCGCGGA,-0.302
13,AGCCTTTA,0.0848
14,GTGCGAAC,-0.147
15,ACATAACG,0.368
16,CCTTTATA,-0.0253
17,CCCCGTGC,-0.158
18,ATTGCAGG,-0.152
19,ATTGAAAT,0.116
20,AGATGGTG,-0.0243
21,TTTACAAA,0.412
22,CCGGCGCG,-0.162
23,ATCATCAG,-0.11
24,AGTATCAA,0.163
25,AACAAGCA,0.253

row,Sequence,PBM E-score
1,CGGTTGGA,-0.246
2,CCGCTTCG,-0.234
3,CAACGCGA,0.157
4,GTTGGCCA,-0.225
5,GAACGAGA,-0.036
6,ACCGCGCA,-0.0344
7,ACGGACGC,-0.134
8,AAACGTCA,0.127
9,GGTGGGCA,-0.186
10,CCACTACG,0.0286
11,GAGACAGA,-0.232
12,ATTCGGTC,-0.0526
13,CCACGACA,-0.103
14,CAGGGAGG,-0.298
15,ACGCTGGA,-0.199
16,CTGTTATC,-0.00298
17,CGTCAACC,0.0261
18,GATATTTA,0.181
19,TAGTTGCA,-0.00184
20,CGTGCGGC,-0.282
21,CAGAAGCG,-0.121
22,GCGGGTGA,-0.0764
23,GTTTTAAA,0.22
24,GTAATTAC,0.452
25,GTGTCCAA,0.108

row,Sequence,PBM E-score
1,ACCGTAGC,-0.193
2,GCCGCAGC,-0.17
3,ACCTCATG,0.00085
4,GGAGAATA,0.0952
5,ACGTAAGG,0.151
6,GCCTCGAC,0.115
7,ATACACCA,0.215
8,ACAACCTG,0.211
9,ATAGATAT,0.0323
10,AGTGTCGC,-0.00973
11,AGTGGGAG,-0.193
12,AGCATACT,0.0478
13,ATTTGATA,0.107
14,AGATCTAG,-0.152
15,CTCGTACC,-0.129
16,CCATACTA,0.121
17,TCTACGAA,0.0456
18,TCTGCAGA,-0.12
19,ATTTTCCC,-0.0382
